This is an account of results in the supplement of paper PMC11417369.

± gives the standard deviation of the averaged measurements. This is one part of the list.

The test concerns PfAP2-I AP2 domain 3 (GST-tagged). Briefly: gcPBM binding intensity (ln(normalized median fluorescence intensity)); higher = stronger DNA binding. In outline:
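GST-fused DNA-binding domains of P. falciparum, expressed in E. coli, were applied at about 25 μg on average for 1 h to an Agilent 4 × 180k array of primer-extended double-stranded 36-bp intergenic genomic probes and negative controls. Binding intensity is the highest Masliner-normalised natural-log median intensity across replicate spots of either probe orientation, measured with Alexa488 anti-GST antibody and a 488 nm scan.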
For the sequence “AGTAGCAAATATTAAGTGCATATTATATAATGTGTA [GTGCAC_site9546]”, the “gcPBM binding intensity (ln)” value was 9.04 ± 0.16. As for “TTTTTTTTTTTTTTTTGTACATATACATATATATAT [XGTACX_site1981]”, the “gcPBM binding intensity (ln)” value is 8.96 ± 0.028. With “ATAAATATGGCAGTACGTACGTATATTCATATTCAT [XGTACX_site8042]” the figure was 7.93 ± 0.47. For the sequence “ATTAAAAAAAAAAAAAAAAAACAAAAAAAAAAAAAA [CACACA_negctrl_site1187]”, the “gcPBM binding intensity (ln)” value worked out at 7.96 ± 0.93. Turning to “TATATTATAATATTCACACACTAACGTAAATCATTG [CACACA_site7318]”, the “gcPBM binding intensity (ln)” value was found to be 7.63 ± 0.45. As for “AAAAAATATATATATATATATATGTAATATTTTTTT [XGTACX_negctrl_site439]”, the “gcPBM binding intensity (ln)” value turned out to be 7.76 ± 0.46. “TGGCAAAATAGGCACACACACATATACAGATATATT [CACACA_site4727]”: the “gcPBM binding intensity (ln)” value stood at 8.06 ± 0.49. Consider “TCAATGAAATTAATATGTACATATTTTTATATAGTA [XGTACX_site7955]”, for which the “gcPBM binding intensity (ln)” value was determined as 7.66 ± 0.34.

For the sequence “AAAACTATAAAAATTTTACACACTGTTTTTAAATAA [CACACA_site3667]”, the “gcPBM binding intensity (ln)” value was 7.77 ± 0.62. With “GTTCTTTCAAATTATACACACCAAAAAAAAAAAAAA [CACACA_site5660]”, the “gcPBM binding intensity (ln)” value is 8.04 ± 0.29. Consider “TGATCAAGTAAGAAAAGTACAAAAAAAGTAAAAAAT [XGTACX_site6529]”, for which the “gcPBM binding intensity (ln)” value came to 8 ± 0.58.

For “GATATGTTTTATTATGTTGATGATAACAGGTAGTTT [CACACA_negctrl_site356]”, the “gcPBM binding intensity (ln)” value stood at 7.67 ± 0.59. As to ATAAGTTTTTATTTTCTGCACTGTCGAATAATAGTT, the “gcPBM binding intensity (ln)” value stood at 9.11 ± 0.41. “ATGGATTATTTTTAAACATGCAGTAGTGATGAAAAA [TGCATGCA_site346]”: the “gcPBM binding intensity (ln)” value stood at 8.36 ± 0.53. The figure for “AAAAAAAACATACATACACACACATAAATATATATA [CACACA_site8864]” is 8.19 ± 0.61.

On to “TGCGGAAATAAGTGCACACATAGATATATGTATTTT [CACACA_site3689]”, for which the “gcPBM binding intensity (ln)” value was 10.2 ± 0.26.

Turning to “ATATATATTAATAATGCATGTGATATAAATTAATAT [TGCATGCA_site930]”, the “gcPBM binding intensity (ln)” value was 8.11 ± 0.66. On to “ATATTATATATGTATAGTACATATTATAAGAAAAAT [XGTACX_site3457]”, for which the “gcPBM binding intensity (ln)” value was 7.79 ± 0.45.

Turning to “ATCTATATCTATAATACACACATCATAAAATATGTA [CACACA_site7230]”, the “gcPBM binding intensity (ln)” value is 8.14 ± 0.41. As for “CGGCACATTCTATATACACACATATAAATATATACA [CACACA_site566]”, the “gcPBM binding intensity (ln)” value was 7.88 ± 0.42. With “TACAATTCGTAATACACACACATATAAATAAATATT [CACACA_site7720]”, the “gcPBM binding intensity (ln)” value came out at 7.99 ± 0.14. With “ATATAAAATATGTATGAGGAATAAAATTAAAAAAAA [XGTACX_negctrl_site173]” the figure was 7.51 ± 0.8.

As to “TTTTTTTTGAAGAATACATGCATATTTTCTATATTC [TGCATGCA_site43]”, the “gcPBM binding intensity (ln)” value worked out at 8.36 ± 0.83. Take “TATTAAATATATATTACATGCAAAAAAAAAAAACAA [TGCATGCA_site705]”: the “gcPBM binding intensity (ln)” value was 7.97 ± 0.52.

With “ACAATATGCAAAAAGTGTACACATTCATTTATATAA [XGTACX_site1061]”, the “gcPBM binding intensity (ln)” value is 8.34 ± 0.32. AATATACAAATAAAGGTGCGAGATATTTTTACTTTT: the “gcPBM binding intensity (ln)” value came to 8.72 ± 0.43. For the sequence “ATAAAAAAAGATGAACGTACATATATTTTAAAAATC [XGTACX_site5950]”, the “gcPBM binding intensity (ln)” value was found to be 7.79 ± 0.53. For the sequence GTAAATATTTGTTGGGTGCTATCAATTATTTCAAAG, the “gcPBM binding intensity (ln)” value is 8.7 ± 0.29. The figure for “TATATAAACATCGGTAGTACACACATTCATGTATTT [XGTACX_site6443]” is 8.02 ± 0.28. The figure for “GGATCATTTTTAAAGGAACACACAAAAAAAATTATA [CACACA_site8381]” is 7.85 ± 0.27; for “ATGATATGGATAAATACACACAATATAATAATGGGT [CACACA_site4905]” it is 7.88 ± 0.66. As to “AAAAAAAACAGACACACACACATTCAATATAAAACA [CACACA_site41]”, the “gcPBM binding intensity (ln)” value stood at 7.79 ± 0.42. With “ATATCTTATATTATCACACACACACCCACAAAACAG [CACACA_site1464]”, the “gcPBM binding intensity (ln)” value came out at 9.12 ± 0.52. Turning to “ATTTTATATATGTGTTGTACGGTGAACATTTTGATA [XGTACX_site6538]”, the “gcPBM binding intensity (ln)” value was 7.85 ± 0.47.

For the sequence “ATATGTATAAATATAAATATATATATATATATATAT [CACACA_negctrl_site705]”, the “gcPBM binding intensity (ln)” value is 9.3 ± 0.47. With “ACGTTAATATCTACAAGTACCCACATTAACAGGAAA [XGTACX_site2616]” the figure was 8.11 ± 0.4; with “TATTTTCATTATACTACTTCGAAGATACCCTTTTTT [CACACA_negctrl_site256]”, 7.75 ± 0.71; with “AGATAAATATATTGTAGTACAGGAGCATAAATATAT [XGTACX_site8267]”, 8.47 ± 0.45. Take “GTTCTTCCTTGTAAATGTACAAATACAAAATGTTCC [XGTACX_site6738]”: the “gcPBM binding intensity (ln)” value was 8.19 ± 0.59. Consider “TATAAACATTAAAGGTGTACAATTTAATTTCAATTT [XGTACX_site2944]”, for which the “gcPBM binding intensity (ln)” value was determined as 7.82 ± 0.23.

As to “TTAAGATCCTAAAAAACACACAATTGCGAATAATAA [CACACA_site6005]”, the “gcPBM binding intensity (ln)” value worked out at 7.68 ± 0.73. For “ATATCATAAAAAATGTGTACATATATGAACATATAA [XGTACX_site2239]”, the “gcPBM binding intensity (ln)” value turned out to be 7.8 ± 0.3. The figure for “GATATATATGTTCACACACACATGGAAATATATATA [CACACA_site4371]” is 8.01 ± 0.62; for “GGAAATTAACAGAACACAATGTAACAATTTCTAACA [CACACA_negctrl_site1250]” it is 7.54 ± 0.74.
